Experimental data taken from the supplement of paper PMC3334620.
In all, about 33,000 sequences were measured (“E-score (-0.5 to 0.5)”: median about -0.011, highest 2% from about 0.28 on). This is one part of the list.

Target: T1, Gcr1 (UniProt P07261)
T1 sequence: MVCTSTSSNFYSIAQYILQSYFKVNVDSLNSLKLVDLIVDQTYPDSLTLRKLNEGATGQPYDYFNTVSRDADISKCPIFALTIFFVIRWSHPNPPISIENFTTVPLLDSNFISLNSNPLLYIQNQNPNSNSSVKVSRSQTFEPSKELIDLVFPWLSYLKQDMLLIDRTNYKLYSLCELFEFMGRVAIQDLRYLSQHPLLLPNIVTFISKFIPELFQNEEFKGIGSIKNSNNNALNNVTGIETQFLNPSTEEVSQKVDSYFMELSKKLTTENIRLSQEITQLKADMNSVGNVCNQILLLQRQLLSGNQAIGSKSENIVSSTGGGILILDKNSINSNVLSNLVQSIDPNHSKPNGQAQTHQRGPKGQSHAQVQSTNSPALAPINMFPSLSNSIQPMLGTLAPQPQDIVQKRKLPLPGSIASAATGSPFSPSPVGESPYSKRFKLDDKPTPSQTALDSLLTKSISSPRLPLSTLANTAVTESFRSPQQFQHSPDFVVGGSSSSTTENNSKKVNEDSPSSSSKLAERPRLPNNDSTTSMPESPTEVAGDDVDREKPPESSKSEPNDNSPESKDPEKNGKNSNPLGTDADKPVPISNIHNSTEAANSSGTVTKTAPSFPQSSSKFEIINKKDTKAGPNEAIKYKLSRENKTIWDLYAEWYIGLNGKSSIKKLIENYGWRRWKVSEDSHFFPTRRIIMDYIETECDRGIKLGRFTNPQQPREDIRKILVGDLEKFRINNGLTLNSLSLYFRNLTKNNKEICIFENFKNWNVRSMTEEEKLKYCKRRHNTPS
Test: PBM E-score (8-mer binding enrichment) (E-score (-0.5 to 0.5)); higher = stronger / more preferred TF binding; most listed sequences are background and not binding sites
Conditions: protein concentration: 100 nM; construct: GST-full length
Procedure, shortened: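 Yeast transcription factors carrying a GST tag, as full-length proteins or DNA-binding domains, were produced by PURExpress in vitro transcription/translation. About 100-200 nM protein was applied to universal all-10-mer Agilent arrays, double-stranded by primer extension on fresh or once-stripped slides. Bound protein was detected with fluorescent anti-GST, and scans were normalised with masliner. The Universal PBM Analysis Suite gave each ungapped eight-base word, pooled with its reverse complement, an E-score, a modified Wilcoxon-Mann-Whitney statistic.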

| Sequence | PBM E-score |
| --- | --- |
| CTGGAACC | 0.375 |
| AGTCAGAT | 0.0324 |
| AACCAGCT | 0.0341 |
| CTTAACGC | -0.15 |
| ACCCCAGG | -0.134 |
| AGATCAAT | -0.0116 |
| AGGTCTAT | -0.0766 |
| TCTCGAGA | 0.00792 |
| ACCGCAGA | -0.12 |
| GCTTATAA | 0.205 |
| AACATACT | -0.238 |
| TAACACCA | -0.147 |
| CATAAGCA | -0.00607 |
| CTAGTATC | 0.209 |
| ACATGTTA | -0.0798 |
| CCGATAAG | -0.104 |
| GATCTAGC | -0.062 |
| AGCCGAGG | -0.105 |
| AATTTGAA | 0.206 |
| CGACGCTA | 0.0406 |
| CTATATGC | 0.0406 |
| CCTCAGAG | -0.128 |
| CCCGTGCA | -0.309 |
| GATTGAAA | -0.0674 |
| AGGTGTGC | -0.205 |

| Sequence | PBM E-score |
| --- | --- |
| ACATTATG | -0.0212 |
| AGCCTTAG | -0.164 |
| ATAGGGGG | 0.193 |
| ATAGTGGC | 0.32 |
| AAGGCTGG | -0.24 |
| CCCAAAAG | 0.13 |
| CTCACGAC | -0.118 |
| AGTGGAGA | -0.0192 |
| GTCCCAGA | 0.147 |
| AGTCTGGC | -0.0196 |
| CGAACATC | 0.139 |
| TACGCGCA | -0.0159 |
| AATACTCA | 0.0848 |
| ACGACAGT | -0.234 |
| CCCGACAA | -0.0155 |
| CTCGGTAC | -0.141 |
| TACCGGAA | 0.341 |
| CCCGCGTA | -0.0651 |
| AGTAGAGA | -0.151 |
| CTAGGACC | -0.209 |
| AGGATGAA | 0.00132 |
| ATGGGCAC | 0.191 |
| GAGCGGGC | -0.0467 |
| AGTATAAA | 0.0707 |
| CGTCTGTA | 0.00259 |

| Sequence | PBM E-score |
| --- | --- |
| ACAATGGG | 0.14 |
| GCGCTCAC | -0.0398 |
| CTTAACAA | 0.0337 |
| GAAACCCA | 0.165 |
| AGTCCCGG | 0.108 |
| AAAGCTCA | -0.231 |
| AGACAATC | -0.104 |
| CTGCACGC | -0.314 |
| AAGCCTAG | -0.212 |
| ACAGATCG | -0.0988 |
| CACGTTAA | -0.0775 |
| AGCTGCGG | 0.118 |
| GCGCTATA | -0.138 |
| ATCTGTTG | -0.131 |
| TGAGACCA | -0.0611 |
| CCTTTCTA | 0.12 |
| GACACAAA | 0.12 |
| CGTAGGAC | -0.145 |
| AGAATGAG | -0.271 |
| AGGCGAGA | -0.0862 |
| ACCAGGAC | 0.102 |
| ACAAGAAA | 0.155 |
| CCAGGCTA | -0.109 |
| CGACTAGA | 0.0898 |
| ACTCACCG | -0.196 |

| Sequence | PBM E-score |
| --- | --- |
| GCTTACTA | -0.0743 |
| ACAACGGG | -0.0515 |
| CCACGTCG | -0.233 |
| AGAATCAC | -0.139 |
| CGCGATAC | 0.192 |
| AATCCATA | 0.085 |
| CTCGTGCA | -0.0437 |
| CGGAATCC | 0.417 |
| ACGGCAAT | -0.0224 |
| CTTGAGCA | -0.0726 |
| CATTTGAC | -0.0858 |
| GTAGGACA | -0.123 |
| CCGACGGA | -0.0795 |
| GGAACAAA | 0.103 |
| GAAAATTA | 0.118 |
| GCGACTCA | 0.0165 |
| TCACGTGA | -0.0645 |
| CTAACTAC | -0.14 |
| GTCCCAAA | 0.0352 |
| CAGGCTCG | -0.211 |
| CGGAGCGA | -0.06 |
| AACCATAT | 0.0076 |
| GGTTAGGA | 0.0114 |
| AACAGCTT | 0.128 |
| ATCGCGCC | 0.113 |

| Sequence | PBM E-score |
| --- | --- |
| GGAGTAAA | -0.173 |
| CGCGCTTC | 0.266 |
| CGGCTCCC | 0.34 |
| CACCTGAC | -0.0894 |
| ATAAGCTG | 0.15 |
| ATTCGGGG | 0.121 |
| TCTCAAAA | 0.137 |
| GCCAAGAA | 0.124 |
| CAAGTGGC | 0.146 |
| ATCCAGCG | -0.0568 |
| AGGGTACT | -0.0947 |
| CTAGTATA | -0.0145 |
| ATTCGGAA | 0.169 |
| ACGAACCT | -0.0495 |
| CGCACAAA | -0.108 |
| TAGACATA | -0.0526 |
| AGACTCAT | -0.0313 |
| ACTCAGAG | -0.204 |
| GGTGCGGA | 0.0902 |
| AACTACAA | 0.102 |
| AGTTCCGG | 0.0853 |
| GCCTTACC | -0.167 |
| AATGATGT | 0.0872 |
| TGAGTCCA | 0.146 |
| GAAGCCTC | 0.283 |

| Sequence | PBM E-score |
| --- | --- |
| GCACCGTA | 0.211 |
| ACTCGGTG | -0.127 |
| CCTACTGA | -0.0359 |
| ACACGGAG | -0.0209 |
| CTCTTTCC | -0.057 |
| CAGACAAC | 0.0134 |
| ATGTAACC | -0.0526 |
| GGTCCCGA | 0.182 |
| CGCGCTAC | 0.0811 |
| GCCGGATA | 0.0288 |
| GGGTTTCA | -0.0174 |
| TGTCAACA | -0.0103 |
| AAACTTGG | -0.0181 |
| ATAGCCTC | -0.0329 |
| AAGACTCC | 0.0934 |
| ACTAGCCA | -0.285 |
| CGGGTGTC | -0.116 |
| AGCGCCTA | 0.164 |
| CAGCTTTA | 0.0159 |
| CTATTACA | 0.148 |
| AAGGGTCC | -0.0768 |
| GTGGACAA | -0.0286 |
| CGAGTGTC | -0.111 |
| GAACCTCA | -0.00628 |
| ACTGGTGG | 0.109 |

| Sequence | PBM E-score |
| --- | --- |
| GGGTCGGA | -0.0653 |
| GAAGTACA | -0.253 |
| AAAGGAGC | 0.126 |
| CACGCTAC | 0.0035 |
| CGATCGCC | -0.139 |
| CCAGCTAC | 0.274 |
| AACGTCCC | -0.159 |
| TAAGCCCA | 0.105 |
| GATCCTTA | 0.012 |
| GAACTCTC | -0.213 |
| AATACGGT | 0.0331 |
| GGGTGGGA | 0.189 |
| AGAAGGCG | 0.114 |
| CTGGATCC | 0.346 |
| CTGTGACC | -0.219 |
| GCGCCTAC | 0.256 |
| CCGCCGTA | 0.108 |
| GAGGAACA | -0.193 |
| CCCCCCAA | -0.0669 |
| CCCGTGGA | -0.00158 |
| ATTACTTG | -0.128 |
| ATGCGCTG | 0.0449 |
| ACACGCAT | 0.197 |
| CACCAAAC | 0.0123 |
| CGCCACGC | -0.154 |

| Sequence | PBM E-score |
| --- | --- |
| CCTTGGTC | -0.192 |
| CTATAGAG | 0.096 |
| AAAAGCTC | -0.072 |
| CGTGTAAA | 0.138 |
| TAGCAAAA | 0.019 |
| CCTAGACC | -0.0274 |
| CTACCATA | -0.0829 |
| GTGACCAC | 0.0824 |
| AACCAGGA | 0.0936 |
| ACCAGTTG | 0.0739 |
| AATCTTTA | -7e-05 |
| CCCGGTAA | 0.126 |
| ACTACTAA | 0.115 |
| AACTCTAT | -0.0936 |
| AAATTCGT | 0.103 |
| TCCCTGAA | 0.0528 |
| CTAGTCTA | 0.116 |
| AAGTGTAT | -0.186 |
| CTCGATAC | 0.116 |
| CCTAGAAA | 0.104 |
| AGCAAAAG | -0.151 |
| ACTTGACT | -0.0523 |
| CGCTCCTA | 0.207 |
| ATCGCGTC | 0.0433 |
| AGGTTTTA | 0.0408 |

| Sequence | PBM E-score |
| --- | --- |
| CAATATGC | 0.0154 |
| AGTGCACG | -0.133 |
| CGCCGCAA | 0.00387 |
| CGATTGCC | -0.109 |
| CAGGATGA | 0.0175 |
| AACGCTGA | -0.0701 |
| TGTAAAAA | 0.0954 |
| CGCAGGAA | 0.0426 |
| TACTTAAA | 0.217 |
| CAGCGGCG | 0.257 |
| CCTATCAA | -0.0163 |
| ACCCCGAA | 0.218 |
| AAGTCCTA | -0.0727 |
| AAACAGGG | 0.06 |
| AAAGACGC | 0.159 |
| ACGCTTGC | -0.203 |
| ACGATACA | -0.14 |
| AATCTGTC | -0.016 |
| GTGAACAA | 0.0843 |
